# Measured values taken from the supplement of paper PMC12632987.
# Over roughly 2,300 sequences, “median log2 fold change of GCK-ALFA target abundance (FLAG IP / Myc IP barcode read proportion)” has its median near 0.095; the lowest 2% begin near -0.47. The list shows a part of the results.
# B1: LC3A_free_8_2507 (protein)
# chain: SKEEAIQKVLEALKEMEEKLRKKAEELGASRLDILELELLVGSVIAEVISLSDDSLEKIKEGLKEGLEEVIKAAKEISEELAKLAKEGAEKILKLLEEVE
# B2: LC3A_free_46_2309 (protein)
# chain: VRAEILIDLLHDDEEVLKEAVEEIVEAIREIAEKYGLEVEIEVSFSKDPDGSYFAEIKVTLKGETKEKVQAAVDEIIERIDEIAEKYDVSYIISVEIEEE
# B3: LC3A_28_900 (protein)
# chain: GAALESARAALAEVQAAVAAGDTSPLVVEVKAPAEEEDAERFLELLEELAEVASQRPGVTIVVDVSEEVSQENIDRIIDTAERIEAKYPNVTVIIALPED
# B4: LC3A_59_2015 (protein)
# chain: SAELEAAIAAIKANVDDLEKLAKTLAEALEKFKDDPEAVDALIDAAAEALSKKYGISDEDMEELKAEIRKAFEELKDKEELEKKILELLKDYVNLIPIEE
# B5: LC3A_28_640 (protein)
# chain: SEIREQIERALREAEEARRRGEPTVITLTLDGNATQEDVELLIEALERIAEILESVPGSAIVVDITGDVKQEHIDLVADKAEEIEKKYPNVTVILALEEK
# B6: LC3A_3_1441 (protein)
# chain: MEELLERAREVLEEIGASPEATEAVLRLVERALEAGEEELVERLIEVLEEARDVPSEELLEAAEEALRRLEEEGVPVEEVLERFIEEIRLLALEKEIEEL
# B7: LC3A_28_985 (protein)
# chain: SAMEERLAAALAEAKAAAAAGEATVITIEVPSTATEEDIEKAVAALKEIGEILKGVKGSAIVVDLESGVPEEHIRKLADAGEEVEKANPDVSVIFALDED
# B8: LC3A_28_824 (protein)
# chain: SVAEEIIEEINKKAEEILKSGKPGVLEVDIKPTLSEEEVKEIAENIKEQAKKLKDIPGTAIVINLEGPTSQEKQDIIMETADEIEEEYPNITVIIALDED
# B9: LC3A_28_709 (protein)
# chain: NPLEESIKKALAEAKAAAAAGEETVITIKVPGDATEEDIEKLIKALEEIAEILKDLKSTSIVIDVDGGVKQEHIDKIADAAEEIEKKYPNVTVIIALDES
# B10: LC3A_78_2086 (protein)
# chain: MKKAIIAHSPSTKEEAEREAERLKDEMEVTVVDLSDLEKALEKYKDEDEVLVIVHADTLDEAMEAEEKIKEIFKDYKISSIIELDEETGKVTAYIEIRKK
# B11: LC3A_free_46_2323 (protein)
# chain: PKVEIDIDALHEDKETMEKFVEEVKKSIKKIAEKYGAKVEIKVNIEKLPDGSYYANIEITIYAETKEKAEKAANEIIDEIEKIAKEKNVAIIISREFIEE
# B12: LC3A_3_1426 (protein)
# chain: AEELFERARREMEEIGLSEEAREAVLELVRRALEAGEFEEVEELIRELKRARNVPSEEILEAAREALRRVEEEGVPIREALRELIEEVRLLRLEKEIEEL
# B13: LC3A_28_949 (protein)
# chain: MTIEEQVKKALEEAKKAKEKNEPVTITLTVTGDATEEDVELVIKTIREIAELHKDIKGVSIIVDVDGDVKQEFIDLLLDELDRVEKEYPNINAIMALDED
# B14: LC3A_141_373 (protein)
# chain: ETVTITKEAKNIDEDEAAKLAKEVAEEVEKEVKKFKGKTVTVKVTVTVEDVETGEKTTLTITDDVTEETAEMVMSGFEIDILSLVLDKKVNLKIEVTLTT
# B15: LC3A_132_266 (protein)
# chain: SEELFEKALEELKEILDKIVEALKAGEDPSPLINELYEKAKEYAKKLSLEETEKLVEETIEYAEKLFKERLDPNDEEAIRTLDIIEMLLEGVLIEKELES
# B16: LC3A_28_1056 (protein)
# chain: SAVDAAIAAALAEARALAAQGQEALITITVKADDTEEDVEKKLEAVREIAEITADLPAVSIVVDVDNKNKEEVTKKFAELGDELEEKYPNVTVIIALSEE
# B17: LC3A_3_1845 (protein)
# chain: SEEIIEEALAYLEELGRSEEVIEKTRELLDALKERGYEEAMKTLLEELKELENVSDDILLAMLEDILRAVTEENLSEEETIELIKEEARTALNESEIEEL
# B18: LC3A_3_1457 (protein)
# chain: LEEEKKKLRKILEENGANEETIKAGEELLEALGKKGYENAIKTVIEEVEKMKDVKSEILLDMFKELLEIVKTEDLSEEEIIKKIKEEAAAAKAENEIIEL
# B19: LC3A_28_657 (protein)
# chain: MSIDEILEKALEEAKQAKAAGEPTVITITVPGTANEEDIEKVIETMEEIAELLKDIPGSAIIIDLTGNLDEEKKNKLIDKAEELEEKYPNVTVIIALEEE
# B20: LC3A_3_1408 (protein)
# chain: FEEIREEALELLRKYGASEEVLEKLEKVLDALEEKGYEEAAKTLLEELKKMKNLSDEILLDLFEDVLDFVENEDASEEEVVKFIKEEASIALSENEIEEL
# B21: LC3A_40_1917 (protein)
# chain: MYEVSIDILADDPAATAAALDAARDRAAAEIKSPEGEKILAALDTMRAQAAAGEPAEATITGVSEEEANTLLRILEEMEAALHAAGVRVAALISIDKEEE
# B22: LC3A_3_1648 (protein)
# chain: MEKELEETEKLLKEAGHDQETIDAFRETGELLIEKGYEEAFKELIEKVKELKDLPSDILLAMLEDVLRIVKEEDLSEEEIIEEIKRIAETAKNEGEIIEL
# B23: LC3A_free_39_2274 (protein)
# chain: SAAELAAAKARLRALAAEASPEAAAAIDEVLELLADLPEALAAVADALEELKAAGADILAFAREVVALAREGRAAGLSPEELTRRVRELARDAVNLIPLD
# B24: LC3A_free_46_2324 (protein)
# chain: YKVIIDLTALHDNKENMEKFVEELEKKFKEIAEKYNAEIEIKVEISKLEDGSYFADIKIEVKAETKEKAEKILTEIIDSADEIAKKYNASVLISYEIIEE
# B25: LC3A_3_1744 (protein)
# chain: MEERLERIREELEELGFSEEVIEAALRVARALLERGFEEAVETLLRELRELKDVPDEILLAMLEDILRAVEENDIDEEEAIELIKEEARIARNEAEIEEL
# B26: LC3A_free_39_2196 (protein)
# chain: SEEERQEAIDELLKLAEEEGEEAKKLAREILELMGYELEHAKELLELAKKAKEEGVDLKEVLKEALALGKELKAQGKSKEEIAKAVLELIQDRINLIPID
# B27: LC3A_free_26_2145 (protein)
# chain: SDFVDLYNIDKAEEAVEEAMKLLKEEGYKDEELLKLLEEAKKYIRELTLESLKKALKLVEEAMKRVKEDKSLPEKVKKELLKLLEEAKKHLEETIEIMES
# B28: LC3A_free_39_2204 (protein)
# chain: SAEEFQEYADRLLALAKEEGEEALKEAEELLKLIEGNTELAKTVLELAEKAKAEGADLKEFLKEAVKLVKELIAAGASDEEIIKALKELARDFINLIPID
# B29: LC3A_13_351 (protein)
# chain: TLTYTATTAEEVKAITKEVLAAGKDVNLTVDLTGKSQEEIDAIAKALAAFVKEAIKAGINLTITIIGDRLDTNYVALEIGAEIAENQGGGQVTVNTELTP
# Target: MAP1LC3A, Q9H492
# Experiment: median log2 fold change of GCK-ALFA target abundance (FLAG IP / Myc IP barcode read proportion) (log2 ratio); each designed protein is fused to an ALFA-tag nanobody in HEK293 cells to bring the named protein to FLAG-tagged glucokinase (GCK); Myc marks an untargeted standard; higher = target protein stabilised (more abundant)
# Details: target protein: 3xFLAG-MCP-GCK-ALFA reporter; HEK293 landing pad (RPLP)
# In short: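 The readout is target abundance, the per-binder median log2 ratio of FLAG to Myc barcode read proportions. It came from HEK293 landing-pad cells carrying a recombined ALFA-nanobody-fused binder library, induced with 2 μg mL^−1 doxycycline and transfected with a plasmid for a FLAG-tagged target and a Myc-tagged standard. After 48 h, lysates were immunoprecipitated with anti-FLAG and anti-Myc, and circular RNA barcodes were reverse transcribed, amplified and sequenced. Each barcode needed a proportion of at least 10^−7 in both replicates and each binder at least 3 barcodes per replicate, a pseudocount of 10^−6 was added, and the replicates were pooled.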
row,Binder,median log2 fold change
1,B1,0.196
2,B2,-0.0343
3,B3,-0.235
4,B4,0.36
5,B5,-0.0387
6,B6,0.113
7,B7,-0.274
8,B8,-0.0892
9,B9,0.108
10,B10,0.255
11,B11,0.0144
12,B12,0.0986
13,B13,0.125
14,B14,0.304
15,B15,0.165
16,B16,-0.0101
17,B17,0.182
18,B18,0.563
19,B19,-0.19
20,B20,0.0172
21,B21,0.0814
22,B22,0.37
23,B23,0.209
24,B24,-0.0986
25,B25,-0.316
26,B26,0.256
27,B27,0.0771
28,B28,0.298
29,B29,0.184
